The results in this text go back to the supplement of paper PMC8728848.

Common to all, as to assay: glycan array binding signal (z-score within array); higher = stronger binding
Holding throughout (conditions): glycan notation: IUPAC condensed, linker removed

For experiment [1], the target named is Neu5Ac(a2-6)Gal(b1-4)GlcNAc(b1-2)Man(a1-6)[Man(a1-3)]Man(b1-4)GlcNAc(b1-4)GlcNAc. The method, boiled down: (§1)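 Columns mapping to the same glycan were averaged after glycan names were converted to IUPAC-condensed notation. The data come from 3228 arrays in the Consortium for Functional Glycomics database, limited to those with an available protein sequence. Binding is reported as a within-array Z-score averaged across arrays of one protein sequence and across linkers.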

The target of experiment [2] is Neu5Ac(a2-6)Gal(b1-4)GlcNAc(b1-2)[Neu5Ac(a2-6)Gal(b1-4)GlcNAc(b1-4)]Man(a1-3)[GlcNAc(b1-4)][Neu5Ac(a2-6)Gal(b1-4)GlcNAc(b1-2)[Neu5Ac(a2-6)Gal(b1-4)GlcNAc(b1-6)]Man(a1-6)]Man(b1-4)GlcNAc(b1-4)GlcNAc. The method, boiled down: as §1
For experiment [3], the target named is Neu5Ac(a2-6)Gal(b1-4)GlcNAc(b1-2)[Neu5Ac(a2-6)Gal(b1-4)GlcNAc(b1-4)]Man(a1-3)[GlcNAc(b1-4)][Neu5Ac(a2-6)Gal(b1-4)GlcNAc(b1-4)Man(a1-6)]Man(b1-4)GlcNAc(b1-4)GlcNAc. The method, boiled down:
as §1

Experiment [4] concerns the target Neu5Ac(a2-6)Gal(b1-4)GlcNAc(b1-2)[Neu5Ac(a2-6)Gal(b1-4)GlcNAc(b1-6)]Man(a1-6)[Neu5Ac(a2-6)Gal(b1-4)GlcNAc(b1-2)Man(a1-3)][GlcNAc(b1-4)]Man(b1-4)GlcNAc(b1-4)GlcNAc. An outline of the steps:
as §1

Experiment [5] deals with Neu5Ac(a2-6)Gal(b1-4)GlcNAc(b1-3)Gal(b1-3)GlcNAc. The method, boiled down: as §1
For experiment [6], the target named is Neu5Ac(a2-6)Gal(b1-4)GlcNAc(b1-3)Gal(b1-4)GlcNAc. An outline of the steps: as §1
The target in experiment [7] is Neu5Ac(a2-6)Gal(b1-4)GlcNAc(b1-3)Gal(b1-4)GlcNAc(b1-2)Man(a1-3)[Neu5Ac(a2-6)Gal(b1-4)GlcNAc(b1-3)Gal(b1-4)GlcNAc(b1-2)Man(a1-6)]GalNAc. The method, boiled down: as §1
In experiment [8] the target is Neu5Ac(a2-6)Gal(b1-4)GlcNAc(b1-3)Gal(b1-4)GlcNAc(b1-3)Gal(b1-4)GlcNAc. The method, boiled down: as §1
In experiment [9] the target is Neu5Ac(a2-6)Gal(b1-4)GlcNAc(b1-3)Gal(b1-4)GlcNAc(b1-3)Gal(b1-4)GlcNAc(b1-2)Man(a1-3)[Neu5Ac(a2-6)Gal(b1-4)GlcNAc(b1-3)Gal(b1-4)GlcNAc(b1-3)Gal(b1-4)GlcNAc(b1-2)Man(a1-6)]GalNAc. An outline of the steps:
as §1

Experiment [10] has as its target Neu5Ac(a2-6)Gal(b1-4)GlcNAc(b1-3)Gal(b1-4)GlcNAc(b1-3)GalNAc. The method, boiled down: as §1
Experiment [11] deals with Neu5Ac(a2-6)Gal(b1-4)GlcNAc(b1-3)Gal(b1-4)GlcNAc(b1-3)[Neu5Ac(a2-6)Gal(b1-4)GlcNAc(b1-3)Gal(b1-4)GlcNAc(b1-6)]GalNAc. An outline of the steps: as §1
For experiment [12], the target named is Neu5Ac(a2-6)Gal(b1-4)GlcNAc(b1-3)Gal(b1-4)GlcNAc(b1-6)[Gal(b1-3)]GalNAc. The method, boiled down:
as §1

For experiment [13], the target named is Neu5Ac(a2-6)Gal(b1-4)GlcNAc(b1-3)Gal(b1-4)[Fuc(a1-3)]GlcNAc(b1-3)Gal(b1-4)[Fuc(a1-3)]GlcNAc. An outline of the steps:
as §1

Experiment [14] addresses Neu5Ac(a2-6)Gal(b1-4)GlcNAc(b1-3)GalNAc. The method, boiled down: as §1
Experiment [15] concerns the target Neu5Ac(a2-6)Gal(b1-4)GlcNAc(b1-3)[Neu5Ac(a2-6)Gal(b1-4)GlcNAc(b1-6)]GalNAc. An outline of the steps:
as §1

Experiment [16] concerns the target Neu5Ac(a2-6)Gal(b1-4)GlcNAc(b1-6)GalNAc. An outline of the steps: as §1
Experiment [17] addresses Neu5Ac(a2-6)Gal(b1-4)GlcNAc(b1-6)[Gal(b1-3)GlcNAc(b1-3)]Gal(b1-4)Glc. The method, boiled down:
as §1

Experiment [18] concerns the target Neu5Ac(a2-6)Gal(b1-4)GlcNAc(b1-6)[Gal(b1-3)]GalNAc. The method, boiled down: as §1
Experiment [19] addresses Neu5Ac(a2-6)Gal(b1-4)GlcNAc6S. An outline of the steps:
as §1

A further experiment has as its target Neu5Ac(a2-6)GalNAc. An outline of the steps: as §1
Experiment [20] concerns the target Neu5Ac(a2-6)GalNAc(b1-4)GlcNAc. An outline of the steps: as §1
For experiment [21], the target named is Neu5Ac(a2-6)GalNAc(b1-4)GlcNAc6S. An outline of the steps:
as §1

The target of experiment [22] is Neu5Ac(a2-6)GlcNAc(b1-4)GlcNAc. The method, boiled down:
as §1

Some of the results follow.

B1: EULS2 M4 (Oryza sativa) (protein)
chain: MVYCRANPNYAMTARNGAVVLAPANPKDEYQHWIKDMRWSTSIKDEEGYPAFALVNKATGQAIKHSLGQSHPVRLVPYNPEVMDESVLWTESRDVGNGFRCIRMVNNIYLNFDAFHGDKYHGGVRDGTDIVLWKWCEGDSLRWKIQPYYILEQKLISEEDLNSAVDHHHHHH
Turning to B1, the “glycan array binding signal (z-score)” value was -0.55 in [1]; -0.51 in experiment [2]; -0.656 in [3]; -0.478 in experiment [4]; 2.81 in experiment [5]; -0.579 in experiment [6]. In addition, the “glycan array binding signal (z-score)” value in experiment [7] was -0.284; in experiment [8] it was -0.507; in [9] it was 0.808; in experiment [10], -0.1; in [11], 2.05; in [12], 1.43. Further, the “glycan array binding signal (z-score)” value in experiment [13] is 4.01; in experiment [14], -0.345; in [15], 7.46; in experiment [16], -0.265; in experiment [17], -0.428; in [18], -0.392. In addition, the “glycan array binding signal (z-score)” value in [19] is 0.663; with Neu5Ac(a2-6)GalNAc, 0.062; in experiment [20], 0.222; in experiment [21] it was -0.165; in experiment [22] it was -0.524.
